Measurements as given in the supplement of paper PMC8728848.
Some of the results follow.

Experiments:
Experiment in all cases: glycan array binding signal (z-score within array); higher = stronger binding
Settings in all cases: glycan notation: IUPAC condensed, linker removed
Neu5Ac(a2-3)Gal(b1-4)Glc = molecular target: Neu5Ac(a2-3)Gal(b1-4)Glc
In short: (§1)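 Columns mapping to the same glycan were averaged after glycan names were converted to IUPAC-condensed notation. The data come from 3228 arrays in the Consortium for Functional Glycomics database, limited to those with an available protein sequence. Binding is reported as a within-array Z-score averaged across arrays of one protein sequence and across linkers.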

[1] = molecular target: Neu5Ac(a2-3)Gal(b1-4)GlcNAc
In short: as §1

[2] = molecular target: Neu5Ac(a2-3)Gal(b1-4)GlcNAc(b1-3)Gal(b1-4)GlcNAc
In short: as §1

[3] = molecular target: Neu5Ac(a2-3)Gal(b1-4)GlcNAc(b1-3)Gal(b1-4)GlcNAc(b1-3)Gal(b1-4)GlcNAc
In short: as §1

[4] = molecular target: Neu5Ac(a2-3)Gal(b1-4)GlcNAc(b1-3)Gal(b1-4)[Fuc(a1-3)]GlcNAc
In short: as §1

[5] = molecular target: Neu5Ac(a2-3)Gal(b1-4)GlcNAc6S
In short: as §1

[6] = molecular target: Neu5Ac(a2-3)Gal(b1-4)[Fuc(a1-3)]GlcNAc
In short: as §1

[7] = molecular target: Neu5Ac(a2-3)Gal(b1-4)[Fuc(a1-3)]GlcNAc(b1-3)Gal
In short: as §1

[8] = molecular target: Neu5Ac(a2-3)Gal(b1-4)[Fuc(a1-3)]GlcNAc(b1-3)Gal(b1-4)GlcNAc
In short: as §1

[9] = molecular target: Neu5Ac(a2-3)Gal(b1-4)[Fuc(a1-3)]GlcNAc(b1-3)Gal(b1-4)[Fuc(a1-3)]GlcNAc(b1-3)Gal(b1-4)[Fuc(a1-3)]GlcNAc
In short: as §1

[10] = molecular target: Neu5Ac(a2-3)Gal(b1-4)[Fuc(a1-3)]GlcNAc6S
In short: as §1

[11] = molecular target: Neu5Ac(a2-3)Gal6S(b1-4)GlcNAc
In short: as §1

[12] = molecular target: Neu5Ac(a2-3)Gal6S(b1-4)[Fuc(a1-3)]GlcNAc
In short: as §1

Neu5Ac(a2-3)GalNAc = molecular target: Neu5Ac(a2-3)GalNAc
In short: as §1

[13] = molecular target: Neu5Ac(a2-3)GalNAc(b1-4)GlcNAc
In short: as §1

[14] = molecular target: Neu5Ac(a2-3)[GalNAc(b1-4)]Gal(b1-4)Glc
In short: as §1

[15] = molecular target: Neu5Ac(a2-3)[GalNAc(b1-4)]Gal(b1-4)GlcNAc
In short: as §1

[16] = molecular target: Neu5Ac(a2-3)[Neu5Ac(a2-6)]GalNAc
In short: as §1

[17] = molecular target: Neu5Ac(a2-6)Gal(b1-4)GlcNAc
In short: as §1

[18] = molecular target: Neu5Ac(a2-6)Gal(b1-4)GlcNAc(b1-2)Man(a1-3)[Neu5Ac(a2-6)Gal(b1-4)GlcNAc(b1-2)Man(a1-6)]Man(b1-4)GlcNAc(b1-4)GlcNAc
In short: as §1

[19] = molecular target: Neu5Ac(a2-6)Gal(b1-4)GlcNAc(b1-3)Gal(b1-4)GlcNAc
In short: as §1

[20] = molecular target: Neu5Ac(a2-6)Gal(b1-4)GlcNAc(b1-3)Gal(b1-4)[Fuc(a1-3)]GlcNAc(b1-3)Gal(b1-4)[Fuc(a1-3)]GlcNAc
In short: as §1

[21] = molecular target: Neu5Ac(a2-6)Gal(b1-4)GlcNAc6S
In short: as §1

Neu5Ac(a2-6)GalNAc = molecular target: Neu5Ac(a2-6)GalNAc
In short: as §1

[22] = molecular target: Neu5Ac(a2-6)GalNAc(b1-4)GlcNAc
In short: as §1

Neu5Ac(a2-8)Neu5Ac = molecular target: Neu5Ac(a2-8)Neu5Ac
In short: as §1

[23] = molecular target: Neu5Ac(a2-8)Neu5Ac(a2-3)Gal(b1-4)Glc
In short: as §1

[24] = molecular target: Neu5Ac(a2-8)Neu5Ac(a2-3)[GalNAc(b1-4)]Gal(b1-4)Glc
In short: as §1

[25] = molecular target: Neu5Ac(a2-8)Neu5Ac(a2-8)Neu5Ac
In short: as §1

[26] = molecular target: Neu5Ac(a2-8)Neu5Ac(a2-8)Neu5Ac(a2-3)Gal(b1-4)Glc
In short: as §1

[27] = molecular target: Neu5Ac(a2-8)Neu5Ac(a2-8)Neu5Ac(a2-3)[GalNAc(b1-4)]Gal(b1-4)Glc
In short: as §1

[28] = molecular target: Neu5Ac(a2-8)Neu5Ac(a2-8)Neu5Ac(a2-8)Neu5Ac(a2-3)[GalNAc(b1-4)]Gal(b1-4)Glc
In short: as §1

[29] = molecular target: Neu5Ac9Ac(a2-6)Gal(b1-4)GlcNAc
In short: as §1

[30] = molecular target: Neu5Gc(a2-3)Gal(b1-3)GlcNAc
In short: as §1

[31] = molecular target: Neu5Gc(a2-3)Gal(b1-3)[Fuc(a1-4)]GlcNAc
In short: as §1

Neu5Gc(a2-3)Gal(b1-4)Glc = molecular target: Neu5Gc(a2-3)Gal(b1-4)Glc
In short: as §1

[32] = molecular target: Neu5Gc(a2-3)Gal(b1-4)GlcNAc
In short: as §1

[33] = molecular target: Neu5Gc(a2-3)Gal(b1-4)[Fuc(a1-4)]GlcNAc
In short: as §1

[34] = molecular target: Neu5Gc(a2-6)Gal(b1-4)GlcNAc
In short: as §1

Neu5Gc(a2-6)GalNAc = molecular target: Neu5Gc(a2-6)GalNAc
In short: as §1

B1: NakA (Mycobacterium tuberculosum) (protein)
chain: SVVKPTKVTVFSPDGGADNPGEADLAIDGNPATSWKTDIYTDPVPFPSFKNGVGLMLQLPQATVVGTVAIDVASTGTKVEIRSASTPTPATLEDTAVLTSATALRPGHNTISVEAAAPTSNLLVWISTLGTTDGKSQADISEITIYAASD
- glycan array binding signal (z-score) (Neu5Ac(a2-3)Gal(b1-4)Glc): -0.536
- glycan array binding signal (z-score) [1]: -0.471
- glycan array binding signal (z-score) [2]: -0.599
- glycan array binding signal (z-score) [3]: -0.596
- glycan array binding signal (z-score) [4]: -0.467
- glycan array binding signal (z-score) [5]: -0.408
- glycan array binding signal (z-score) [6]: -0.418
- glycan array binding signal (z-score) [7]: -0.315
- glycan array binding signal (z-score) [8]: -0.085
- glycan array binding signal (z-score) [9]: -0.405
- glycan array binding signal (z-score) [10]: -0.545
- glycan array binding signal (z-score) [11]: -0.541
- glycan array binding signal (z-score) [12]: -0.346
- glycan array binding signal (z-score) (Neu5Ac(a2-3)GalNAc): -0.666
- glycan array binding signal (z-score) [13]: -0.649
- glycan array binding signal (z-score) [14]: -0.601
- glycan array binding signal (z-score) [15]: -0.309
- glycan array binding signal (z-score) [16]: -0.641
- glycan array binding signal (z-score) [17]: -0.439
- glycan array binding signal (z-score) [18]: -0.479
- glycan array binding signal (z-score) [19]: -0.501
- glycan array binding signal (z-score) [20]: -0.484
- glycan array binding signal (z-score) [21]: -0.628
- glycan array binding signal (z-score) (Neu5Ac(a2-6)GalNAc): -0.54
- glycan array binding signal (z-score) [22]: -0.48
- glycan array binding signal (z-score) (Neu5Ac(a2-8)Neu5Ac): -0.242
- glycan array binding signal (z-score) [23]: -0.189
- glycan array binding signal (z-score) [24]: -0.598
- glycan array binding signal (z-score) [25]: -0.501
- glycan array binding signal (z-score) [26]: -0.19
- glycan array binding signal (z-score) [27]: -0.632
- glycan array binding signal (z-score) [28]: -0.581
- glycan array binding signal (z-score) [29]: -0.459
- glycan array binding signal (z-score) [30]: -0.404
- glycan array binding signal (z-score) [31]: -0.676
- glycan array binding signal (z-score) (Neu5Gc(a2-3)Gal(b1-4)Glc): -0.526
- glycan array binding signal (z-score) [32]: -0.644
- glycan array binding signal (z-score) [33]: -0.491
- glycan array binding signal (z-score) [34]: -0.444
- glycan array binding signal (z-score) (Neu5Gc(a2-6)GalNAc): -0.397
